According to PubChem BioAssay AID1963576 (National Center for Advancing Translational Sciences (NCATS), 2024):
Among all 46,000 compounds or so, about 60 (0.1%) were called active. Roughly 3% stayed inconclusive and do not appear here. Calls follow the shape of the dose curve; as a rule, active = well fitted inhibition curve with a large enough effect; inconclusive = small, poorly fitted or top-dose-only effect; inactive = no such curve, though single readings can be large or run the other way. The list shows a part of the results.

test: Primary qHTS assay for Inhibitors of ovarian cancer metastasis using an organotypic tumor microenvironment (TME) model.; also: nearly all actives have a fitted effect of over 65% in size;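 as to activity change, negative = inhibition: plate controls were DMSO wells for no effect and tomatine positive control wells for full effect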; conditions: SKOV3ip1-GFP adhesion/invasion on 3D omental model, fluorescence; series mostly up to 45.8 µM; activity change, negative = inhibition: at the top concentration
How it was run: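 Adhesion/invasion was scored as fixed GFP-labeled SKOV3ip1 cell counts (488/509 nm), normalized to DMSO and tomatine controls. Cancer cells in serum-free medium, with four compound doses (0.36-46 umol/L), sat 2 hr at RT then 16 hr at 37 C on a 48 hr fibroblast/mesothelial/ECM culture.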

Activity change, negative = inhibition, inactive:
CCC(=O)N1c2ccccc2CC1C(=O)NCc1ccccc1C (stereo unspecified) 6.58%, COc1ccc(OC)c(NC(=O)c2cc3c(s2)-c2ccccc2SC3)c1 -6.22%, Cc1c(NS(=O)(=O)c2cccc(C(=O)O)c2)c(=O)n(-c2ccccc2)n1C -3.52%, COc1ccccc1-c1c(C)nn2c(N3CCN(c4cccc(Cl)c4)CC3)cc(C)nc12 11.1%, COCCCNC(=O)c1cc2n(n1)CCCN(Cc1ccc(C)cc1)C2=O -1.79%, CC(=O)SC[C@@H](C)C(=O)N1CCC[C@H]1C(=O)N[C@@H](Cc1ccccc1)C(=O)O -4.46%, CNc1nc(Oc2ccc(=O)n(C)n2)nc(N2CCOCC2)n1 -15.6%, COc1cccc(Cn2nnc3c(=O)[nH]c(C4CCCN(C(=O)c5ccc(C)cc5)C4)nc32)c1 (stereo unspecified) -1.1%, CS(=O)(=O)c1ncc(N(Cc2ccco2)Cc2ccco2)c(C(=O)Nc2ccccc2Br)n1 44%, Cc1ccc(-n2ncc(C(=O)NC3CCCC3)c2C2CCN(C(=O)OC(C)(C)C)CC2)c(C)c1 4.79%, CCc1nc2nc(C)cc(Nc3ccc(OC)cc3)n2n1 1.59%, COc1cccc(CN(Cc2ccco2)c2cnc(S(C)(=O)=O)nc2C(=O)Nc2cccc(Cl)c2C)c1 -0.54%, Cn1c(SCC(=O)N2CCCc3ccccc32)ncc(C(=O)Nc2ccc(Cl)cc2)c1=O -0.714%, CSCCC(NS(=O)(=O)c1ccc2c(c1)oc(=O)n2C)C(=O)NCCc1ccc(C)cc1 (stereo unspecified) 10.8%, CCS(=O)(=O)N1CCC(C(=O)NCCC(C)C)CC1 0.296%, Cc1ccc(-c2nnc(Nc3cccc(Cl)c3)c3ccccc23)cc1S(=O)(=O)NCC1CCCO1 (stereo unspecified) -6.81%, Cc1ccc(S(=O)(=O)c2cnc(SCC(=O)Nc3ccc4c(c3)OCCO4)[nH]c2=O)cc1 -1.02%, O=C(c1cccc([N+](=O)[O-])c1)N1c2ncnn2C2(CCCCC2)[C@@H]2CCCC[C@@H]21 0.0919%, COc1cccc(OCCCCn2c(-c3ccc(Cl)cc3)nc3ccccc3c2=O)c1 -0.245%, Cc1ccc(-c2onc(C)c2C)cc1S(=O)(=O)NCc1ccco1 5.74%, O=S(=O)(NCCSc1nnnn1-c1ccccc1)c1ccc(F)cc1 2.47%, CCCN(CCC)C(=O)CSc1nnc2cc(C)c3cc(C)cc(C)c3n12 31.2%, CCOC(=O)c1c(C)oc2nc(C)nc(NCc3ccccc3Cl)c12 -7.55%, COC(=O)c1ccccc1NC(=O)Cn1cc(S(=O)(=O)Cc2ccccc2F)c2ccccc21 -11.2%, Cc1ccc2cccc(NC(=O)COc3ccccc3[N+](=O)[O-])c2n1 1.43%, CCCCc1ccc(-n2nc3cc(C)c(NC(=O)Cc4ccccc4)cc3n2)cc1 20.6%, Cc1ccc(S(=O)(=O)c2cnc(SCC(=O)Nc3cc(C)cc(C)c3)nc2N)cc1 34.6%, Cc1cccc(OCc2ccc(-c3nc(C#N)c(NCCN(C)C)o3)o2)c1 -16.3%, COc1ccc2c(c1)c1c(c(=O)n(-c3ccccc3C)c(=O)n1CC(=O)NCc1ccc(C)cc1)n2C -6.58%, COC(=O)c1c(-c2cccs2)csc1NC(=O)c1ccc(Cl)cc1 -0.103%, CCc1ccc(N(CC)C(=O)c2ccc3c(=O)n4c(nc3c2)CCCCC4)cc1 -6.2%, Cc1cccc(CN2C(=O)c3ccccc3Sc3ccc(C(=O)N4CCCC4)cc32)c1 -34%, Cc1ccc2c(=O)c(C(=O)c3ccc(F)cc3)cn(CC(=O)NCc3ccccc3)c2n1 2.52%, CCOC(=O)c1c(NC(=O)/C=C/c2ccccc2)sc2c1CCCC2 14.3%, COc1ccc(N2CCN(C(=O)c3ccc(C)c(NC(=O)c4nsc5ccccc45)c3)CC2)cc1 9.67%, CC(C)(C)OC(=O)N1CCC(c2c(C(=O)NCc3ccccn3)cnn2-c2ccccc2)CC1 2.57%, COc1ccc(C(=O)Nc2ccc(-c3nc4ncccc4o3)cc2)cc1 2.72%, COc1ccc(OC)c(-c2cc(C(=O)Nc3cccc(Cl)c3C)no2)c1 -21.2%, COc1cc(Cl)ccc1Nc1ncc(C(=O)N2CCN(c3ccccc3OC)CC2)c2ccccc12 1.06%, COc1ccccc1Nc1cc(C(=O)NCCCN(C)c2ccccc2)c2ccccc2n1 -2.41%, COc1cccc(CNC(=O)c2ccc(Cn3c(SCc4ccccc4)nc4cccnc43)cc2)c1 0.493%, Cn1nccc1C(=O)NCc1ccc2c(c1)CCN2C(=O)c1ccc(F)cc1 -25.8%, Cc1nc2ccccc2n1CC(O)COc1ccc(C(=O)O)cc1 (stereo unspecified) -6.14%, COc1cc(NC(=O)CCc2c(C)nc3nc(-c4cc(OC)cc(OC)c4)nn3c2C)cc(OC)c1 -1.71%, CCC(=O)N1c2ccc(S(=O)(=O)NCc3cccc(OC)c3)cc2CC1C (stereo unspecified) 18.1%, O=C(CSc1nc(-c2ccccc2)nc2c1CCCC2)c1ccc(F)cc1 3.58%, CCCCN(Cc1ccccc1)C(=O)c1oc(=O)c2ccccc2c1-c1ccc(C)cc1 -2.12%, CC1CCCN(S(=O)(=O)c2ccc(NC(=O)c3nc(SC(C)C)ncc3Cl)cc2)C1 (stereo unspecified) -0.884%, CCC(Sc1nnc(-c2ccc(OC)cc2)c(-c2ccc(OC)cc2)n1)C(=O)NC1CCCCC1 (stereo unspecified) -9.87%, CCn1c(C(=O)N2CCC(C(=O)NCCc3ccccc3)CC2)cc2sccc21 -11.9%, Cc1ccc(NS(=O)(=O)c2ccc(NC(=O)N3CCCC3)cc2)cc1C 4.52%, Cc1ccc(-n2c3nc(=O)n(C)c(=O)c-3cc3c(Cl)cccc32)c(C)c1 -1.71%, COc1cccc(N2CC(NC(=O)/C=C\c3ccc4c(c3)OCO4)CC2=O)c1 (stereo unspecified) -2.37%, COc1ccc(N2CC(NC(=O)c3ccc(S(=O)(=O)N4CCCC4)cc3)CC2=O)cc1 (stereo unspecified) -1.91%, CCOC(=O)c1ccc(NC(=O)C(CC)Sc2nc3ncccc3[nH]2)cc1 (stereo unspecified) -1.67%, COc1ccc(-n2nc(C(=O)N3CCN(c4ccccc4OC)CC3)c3c4ccccc4n(C)c3c2=O)cc1 -8.28%, Nc1ncnc2c1ncn2[C@@H]1O[C@H](CO)[C@@H](O)[C@@H]1O -28.8%, CCc1ccccc1NC(=O)CN1C(=O)CCc2cc(S(=O)(=O)N3CCCCC3)ccc21 1.64%, O=C(Nc1cc(C(F)(F)F)ccc1Cl)c1cc2nc(-c3ccc4c(c3)OCO4)cc(C(F)(F)F)n2n1 -5.53%, Cn1c(=O)oc2cc(S(=O)(=O)N3CCCC(C(=O)Nc4ccc(Br)cc4F)C3)ccc21 (stereo unspecified) 5.85%, O=C(NCc1cccc(F)c1)C1=Cc2cc(Br)ccc2OC1 4.55%, Cc1ccc(-n2ccnc(NCc3ccccc3)c2=O)cc1C 1.16%, COc1ccc(OCCCn2c(=O)oc3ccc(C)cc32)cc1 -3.11%, Cc1ccc(C)c(Cn2nnc(C(=O)NCc3ccc(Cl)cc3Cl)c2N)c1 -3.7%, COc1cc2c(cc1NS(=O)(=O)c1cccc(C#N)c1)n(C)c(=O)n2C 8.63%, Cc1cc(C)cc(NC(=O)CN2C(=O)c3ccccc3Sc3ccc(C(=O)N4CCOCC4)cc32)c1 -9.12%, CCc1ccc(NC(=O)c2ccc(F)c(S(=O)(=O)N3CCC(C)CC3)c2)cc1 -9.05%, Cc1cn(C)c(CC(=O)Nc2cccc(Cl)c2C)c1C(=O)O -4.06%, CCOC(=O)c1sc2ccccc2c1S(=O)(=O)Nc1cccc(C(F)(F)F)c1 -4.93%, Cc1cccc(C(=O)NCCc2sc(-c3ccccc3)nc2C)c1 8.59%, C=CCc1cccc2cc(C(=O)Nc3cccc(Cl)c3)c(=O)oc12 -2.31%, COc1ccc(-c2nnc(SCC(=O)Oc3c(C)cccc3C)o2)cc1OC 5.97%, CCCCN(C)C(=O)C(Cc1ccccc1)NS(=O)(=O)c1ccc2c(c1)c(=O)n(C)c(=O)n2C (stereo unspecified) -3.16%, Cc1oc(-c2cccc(Cl)c2)nc1CN1CCCC(C(=O)NCc2ccc(F)cc2)C1 (stereo unspecified) 17.2%, CC(C)OCCCNC(=O)c1ccc2c(=O)n(CCc3ccccc3)c(=O)[nH]c2c1 1.23%, Cc1coc2c1c(C)cc1oc(=O)cc(C)c12 21.6%, CCOC(=O)C1=C(CS(=O)(=O)c2ccc(Br)cc2)NC(=O)NC1c1ccccc1 (stereo unspecified) 18.2%

outcome, inactive:
Cc1ccc(C)c(NS(=O)(=O)c2ccc3c4c(cccc24)C(=O)N3)c1, CC1=C(C(=O)OCc2ccc(C)cc2)C(c2c(Cl)cccc2Cl)CC(=O)N1 (stereo unspecified), CN(C1CCCCC1)S(=O)(=O)c1ccc2c(c1)c(=O)c(C(=O)NCCc1ccc(Cl)cc1)cn2C, CCOc1cc(C(=O)Nc2cccc(-c3nc4ccccc4o3)c2)cc(OCC)c1OCC, CC(=O)Nc1ccc(S(=O)(=O)NC2(C(F)(F)F)NC(=O)N(c3ccc(C)cc3)C2=O)cc1 (stereo unspecified), CCN(CC)c1ccc(NC(=O)CSc2nnc(C)c(=O)[nH]2)cc1, Cc1cc(Nc2ccc(C)c(C)c2)n2cnnc2n1, COCCN1C(=O)c2[nH]nc(-c3ccccc3O)c2C1c1ccc(OCc2ccccc2)c(OC)c1 (stereo unspecified), CCOC(=O)c1c(NC(=O)COc2ccccc2F)sc2c1CCCC2, COc1cccc(Cn2c(CNC(=O)C(C)C)nc3cccnc32)c1, COc1ccc(OC)c(S(=O)(=O)NCCc2sc(-c3ccc(C)cc3)nc2C)c1, COC(=O)c1cc(S(=O)(=O)NCC2CCN(Cc3cc(C)ccc3C)CC2)c[nH]1, COc1ccccc1Nc1nn2c(=O)c3ccc(C(=O)NCc4cccs4)cc3nc2s1, Cc1ccc(C(=O)N2CCC(c3c[nH]c4ccccc34)(c3c[nH]c4ccccc34)CC2)cc1, Cc1ccc(S(=O)(=O)c2nc(-c3ccco3)oc2SC(C)c2ccccc2)cc1 (stereo unspecified), COc1ccccc1/C=C/c1nc(C#N)c(N2CCCCCC2)o1, Cc1ccc(CNC(=O)c2ccc(CSCc3ccc(Cl)cc3)o2)cc1, O=C(CSc1nc2c(oc3ccccc32)c(=O)n1Cc1ccco1)Nc1cccc(Cl)c1, COc1ccc(N(CC(=O)NCc2ccc(F)cc2)S(=O)(=O)c2c(C)n[nH]c2C)cc1
